How the values were obtained:
mice [1] = test: Lethal dose (LD50) and Therapeutic Index; assay type: in vivo, Swiss albino mice; settings: for Therapeutic Index: calculated from LD50 and minimal effective hypnotic dose; for LD50: male mice, i.p., observed for 72 hours
mice [2] = test: Hypnotic activity, standard righting reflex method; assay type: in vivo, Swiss albino mice; settings: mice, i.p.; for Duration of sleep / Onset of sleep: at minimal effective dose, N = 6; for Minimal Effective Dose: hypnosis (loss of righting reflex)
[3] = cited from earlier work
mice [4] = test: Potentiating effect to the non hypnotic dose of thiopental sodium; settings: thiopental Na alone, 0.2 mmole/kg i.p.
[5] = single intravenous anesthetic dose

Compound | Therapeutic Index (mice [1]) | LD50 (mice [1]) | Duration of sleep (mice [2]) [min] | Onset of sleep (mice [2]) [min] | Minimal Effective Dose (mice [2]) | Recovery from the anesthetic effect ([3]; governed by redistribution to well-perfused tissues) | Time to unconsciousness [3, 5] [s] | Time until consciousness returns [3, 5] [min] | Duration of sleep (mice [4]) [min] | Onset of sleep (mice [4]) [min]
O=C1CCCN2N=C(c3ccccc3)SC2=N1 [GS-62, (E) 2-Phenyl-6,7-dihydro-[1,3,4]thiadiazolo[3,2-α][1,3]diazepin-8(5H)-one] | 6.62 | 2.65 mmol/kg (i.p) | 94.8 ± 5.3 | 6.4 ± 0.2 | 0.4 mmol/kg (i.p) |  |  |  |  | 
CCCC(C)C1(CC)C(=O)NC(=S)NC1=O (stereo not drawn) [Thiopental Na, thiopental sodium, reference compound] | 6.10 | 1.22 mmol/kg (i.p) | 45 ± 3.6 | 2.0 ± 0.1 | 0.2 mmol/kg (i.p) | about 5 minutes | 10 to 20 | 20 to 30 | 45 ± 3.6 | 2 ± 0.3

— patent publication US8741893B2, “6,7-dihydro-[1,3,4]thiadiazolo-[3,2-a][1,3]diazepin derivatives and pharmaceutical compositions containing the same as hypnotic or anesthetic agent and method for their preparation” (priority 2011, dated 2014)
